Publication PMC9911399, “Two distinct binding modes provide the RNA-binding protein RbFox with extraordinary sequence specificity”
Positions count from the first letter of the chain named. The list shows a part of the results.

T1: RBFOX1 RRM RbFoxmut (Fox-RRM*) (Homo sapiens, UniProt Q9NWB1 109-208, R118D;E147R;N151S;E152T)
T1 sequence: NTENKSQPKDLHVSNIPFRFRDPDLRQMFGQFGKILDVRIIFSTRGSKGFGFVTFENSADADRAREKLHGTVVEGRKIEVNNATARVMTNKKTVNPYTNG

B1: AAUUAUC (DNA:RNA)
RNA: GGGAGACCGGAAUUCAGAUUGUCCAAUUAUCUUAAAUCCCGUCGUAGCCACCA
DNA 1: CAATCTGAATTCCGGTCTCCC
DNA 2: TGGTGGCTACGACGGGATT
B2: UUACUUU (DNA:RNA)
RNA: B1 RNA with A25U, A26U, U27A, U28C, A29U, C31U
DNA 1: CAATCTGAATTCCGGTCTCCC
DNA 2: TGGTGGCTACGACGGGATT
B3: CAGGAGA (DNA:RNA)
RNA: B1 RNA with A25C, U27G, U28G, U30G, C31A
DNA 1: CAATCTGAATTCCGGTCTCCC
DNA 2: TGGTGGCTACGACGGGATT
B4: UUCAUAA (DNA:RNA)
RNA: GGGAGACCGGAAUUCAGAUUGUCCUUCAUAAUUAAAUCCCGUCGUAGCCACCA
DNA 1: CAATCTGAATTCCGGTCTCCC
DNA 2: TGGTGGCTACGACGGGATT
B5: AUCGAUU (DNA:RNA)
RNA: B1 RNA with A26U, U27C, U28G, C31U
DNA 1: CAATCTGAATTCCGGTCTCCC
DNA 2: TGGTGGCTACGACGGGATT
B6: CCACGCC (DNA:RNA)
RNA: B1 RNA with A25C, A26C, U27A, U28C, A29G, U30C
DNA 1: CAATCTGAATTCCGGTCTCCC
DNA 2: TGGTGGCTACGACGGGATT
B7: GCCGUCA (DNA:RNA)
RNA: B4 RNA with U25G, U26C, A28G, A30C
DNA 1: CAATCTGAATTCCGGTCTCCC
DNA 2: TGGTGGCTACGACGGGATT
B8: GACGAUA (DNA:RNA)
RNA: B1 RNA with A25G, U27C, U28G, C31A
DNA 1: CAATCTGAATTCCGGTCTCCC
DNA 2: TGGTGGCTACGACGGGATT
B9: AGUGAAG (DNA:RNA)
RNA: B1 RNA with A26G, U28G, U30A, C31G
DNA 1: CAATCTGAATTCCGGTCTCCC
DNA 2: TGGTGGCTACGACGGGATT
B10: UAAUCCC (DNA:RNA)
RNA: B1 RNA with A25U, U27A, A29C, U30C
DNA 1: CAATCTGAATTCCGGTCTCCC
DNA 2: TGGTGGCTACGACGGGATT
B11: CGCGAAA (DNA:RNA)
RNA: B4 RNA with U25C, U26G, A28G, U29A
DNA 1: CAATCTGAATTCCGGTCTCCC
DNA 2: TGGTGGCTACGACGGGATT
B12: CCGAUCU (DNA:RNA)
RNA: B4 RNA with U25C, U26C, C27G, A30C, A31U
DNA 1: CAATCTGAATTCCGGTCTCCC
DNA 2: TGGTGGCTACGACGGGATT
B13: CUCAUCA (DNA:RNA)
RNA: B4 RNA with U25C, A30C
DNA 1: CAATCTGAATTCCGGTCTCCC
DNA 2: TGGTGGCTACGACGGGATT
B14: UUAACGG (DNA:RNA)
RNA: B4 RNA with C27A, U29C, A30G, A31G
DNA 1: CAATCTGAATTCCGGTCTCCC
DNA 2: TGGTGGCTACGACGGGATT
B15: AGGGCCC (DNA:RNA)
RNA: B1 RNA with A26G, U27G, U28G, A29C, U30C
DNA 1: CAATCTGAATTCCGGTCTCCC
DNA 2: TGGTGGCTACGACGGGATT
B16: UAGUUAA (DNA:RNA)
RNA: B4 RNA with U26A, C27G, A28U
DNA 1: CAATCTGAATTCCGGTCTCCC
DNA 2: TGGTGGCTACGACGGGATT
B17: AAACCAU (DNA:RNA)
RNA: B1 RNA with U27A, U28C, A29C, U30A, C31U
DNA 1: CAATCTGAATTCCGGTCTCCC
DNA 2: TGGTGGCTACGACGGGATT
B18: UGAGUAU (DNA:RNA)
RNA: B4 RNA with U26G, C27A, A28G, A31U
DNA 1: CAATCTGAATTCCGGTCTCCC
DNA 2: TGGTGGCTACGACGGGATT
B19: CGCAAAG (DNA:RNA)
RNA: B4 RNA with U25C, U26G, U29A, A31G
DNA 1: CAATCTGAATTCCGGTCTCCC
DNA 2: TGGTGGCTACGACGGGATT
B20: UUGGCGA (DNA:RNA)
RNA: B4 RNA with C27G, A28G, U29C, A30G
DNA 1: CAATCTGAATTCCGGTCTCCC
DNA 2: TGGTGGCTACGACGGGATT

biological target: T1, RBFOX1 RRM RbFoxmut (Fox-RRM*); assay: EMSA; HiTS-Eq, 1 nM pool, 10 min; buffer printed only for the single-RNA assays: 10 mM Tris pH 7.5, 150 mM NaCl, 3.4 mM EDTA, 0.001% NP-40, 30 C; conditions: tags: His6 N-terminal (pET28a); label: 5' 32P
Method in brief: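 Purified RbFox RRM, wild type or mutant, was incubated for 10 min in 50 µL with 1 nM of a 5′-radiolabelled RNA pool carrying 7 randomized nucleotides, whose flanks were annealed to DNA oligonucleotides, over a series of increasing protein concentrations. Unbound RNA was resolved on 8% native PAGE, cut out, reverse-transcribed, barcoded by PCR and sequenced on an Illumina HiSeq 2500. Relative association constants were derived from changes in read counts for each RNA species versus the control reaction and normalised to the cognate motif.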

| Binder | binding signal |
| --- | --- |
| B1 | 0.0838 KA relative to UGCAUGU |
| B2 | 0.0818 KA relative to UGCAUGU |
| B3 | 0.0858 KA relative to UGCAUGU |
| B4 | 0.114 KA relative to UGCAUGU |
| B5 | 0.0813 KA relative to UGCAUGU |
| B6 | 0.123 KA relative to UGCAUGU |
| B7 | 0.0763 KA relative to UGCAUGU |
| B8 | 0.0832 KA relative to UGCAUGU |
| B9 | 0.134 KA relative to UGCAUGU |
| B10 | 0.0728 KA relative to UGCAUGU |
| B11 | 0.0949 KA relative to UGCAUGU |
| B12 | 0.0341 KA relative to UGCAUGU |
| B13 | 0.125 KA relative to UGCAUGU |
| B14 | 0.0728 KA relative to UGCAUGU |
| B15 | 0.0881 KA relative to UGCAUGU |
| B16 | 0.108 KA relative to UGCAUGU |
| B17 | 0.0885 KA relative to UGCAUGU |
| B18 | 0.11 KA relative to UGCAUGU |
| B19 | 0.118 KA relative to UGCAUGU |
| B20 | 0.074 KA relative to UGCAUGU |
